{"source": "the supplement of paper PMC9446081", "note": "Screen size: about 39,000 compounds; about 220 (0.56%) showed activity. The list shows a part of the results.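 Also: static incubation at 37 °C against the wild-type strain, values averaged over two biological replicates.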"}
{"system": "Escherichia coli K-12 BW25113", "assay": "relative growth (OD600 normalised to plate interquartile mean) (fraction); higher = less growth inhibition, active = 0.2 or less", "details": "50 µM; LB; incubation time: overnight (16-24 h)"}
{"smiles": "C[C@@H]1CN([C@H](C)CO)C(=O)CCCn2cc(nn2)CO[C@H]1CN(C)S(=O)(=O)c1ccc(Oc2ccccc2)cc1", "relative growth": "inactive: 0.982"}
{"smiles": "C[C@H]1CN([C@@H](C)CO)C(=O)c2cc(NC(=O)C3CC3)ccc2O[C@H]1CN(C)C(=O)NC1CCCCC1", "relative growth": "inactive: 0.98"}
{"smiles": "CC(C)NC(=O)Nc1ccc2c(c1)C(=O)N([C@H](C)CO)C[C@@H](C)[C@@H](CN(C)CC1CCCCC1)OCCCC[C@H](C)O2", "relative growth": "inactive: 1"}
{"smiles": "COc1ccc(NC(=O)N(C)C[C@H]2OCCCC[C@@H](C)Oc3ccc(NC(=O)Nc4ccccc4)cc3C(=O)N([C@H](C)CO)C[C@H]2C)cc1", "relative growth": "inactive: 1.02"}
{"smiles": "O=C(CCc1cn(-c2ccc(C[C@H]3C(=O)O[C@@H](Cc4ccccc4)[C@H]4[C@@H]5C=CCCC=C5CN43)cc2)nn1)NO", "relative growth": "inactive: 1.01"}
{"smiles": "COC1C(O)CC(=O)OC(C)CC=CC=CC(OC2CCC(N(C)C)C(C)O2)C(C)CC(CC=O)C1OC1OC(C)C(OC2CC(C)(O)C(O)C(C)O2)C(N(C)C)C1O", "note": "(stereo not drawn)", "relative growth": "inactive: 0.819"}
{"smiles": "Cc1ccc(S(=O)(=O)N(C)C[C@H]2Oc3ccc(NS(=O)(=O)c4c(C)noc4C)cc3C(=O)N([C@H](C)CO)C[C@@H]2C)cc1", "relative growth": "inactive: 1.01"}
{"smiles": "C[C@@H]1CN([C@H](C)CO)C(=O)Cc2cc(NC(=O)Cn3cnnn3)ccc2O[C@@H]1CN(C)C(=O)Nc1ccc(C(F)(F)F)cc1", "relative growth": "inactive: 0.957"}
{"smiles": "C[C@H]1CN([C@@H](C)CO)C(=O)Cc2cc(N(C)C)ccc2O[C@@H]1CN(C)S(=O)(=O)c1ccc(Cl)cc1", "relative growth": "inactive: 0.987"}
{"smiles": "Cc1ccc(S(=O)(=O)Nc2cccc3c2O[C@@H](CN(C)S(=O)(=O)c2ccc(F)cc2)[C@@H](C)CN([C@H](C)CO)C3=O)cc1", "relative growth": "inactive: 1.04"}
{"smiles": "Cc1ccc(S(=O)(=O)N2C[C@@H](O)COC[C@@H]3O[C@@H](CC(=O)NCCCN(C)C)CC[C@H]32)cc1", "relative growth": "inactive: 0.988"}
{"smiles": "COc1ccc([Si](C)(C)[C@H]2[C@H](CCOC(=O)NCCCCCC(=O)NO)O[C@]3(C(=O)N(Cc4cccc(N5CCCCC5=O)c4)c4ccccc43)[C@@H]2C)cc1", "relative growth": "inactive: 1.02"}
{"smiles": "C[C@@H]1CN([C@@H](C)CO)C(=O)CCCn2cc(nn2)CO[C@H]1CN(C)Cc1cccc2c1OCCCO2", "relative growth": "inactive: 0.992"}
{"smiles": "COc1ccc(NC(=O)Nc2cccc3c2O[C@H](CN(C)Cc2ccc(-c4ccccc4)cc2)[C@H](C)CN([C@@H](C)CO)C3=O)cc1", "relative growth": "inactive: 0.97"}
{"smiles": "C[C@@H]1CN([C@@H](C)CO)C(=O)c2cccc(NC(=O)Nc3ccc(C(F)(F)F)cc3)c2O[C@@H]1CN(C)C(=O)Nc1ccc2c(c1)OCO2", "relative growth": "inactive: 0.986"}
{"smiles": "CCNC(=O)[C@H]1[C@H](CO)[C@H]2Cn3c(ccc(-c4ccc(OC)cc4)c3=O)[C@@H]1N2S(C)(=O)=O", "relative growth": "inactive: 1.01"}
{"smiles": "C[C@H]1CN([C@@H](C)CO)C(=O)c2cc(NC(=O)Nc3ccc4c(c3)OCO4)ccc2O[C@@H]1CN(C)Cc1ccc(Oc2ccccc2)cc1", "relative growth": "inactive: 0.961"}
{"smiles": "C[C@H](CO)N1C[C@H](C)[C@@H](CN(C)C(=O)Nc2ccccc2C(F)(F)F)OCc2cn(nn2)CCCC1=O", "relative growth": "inactive: 1.02"}
{"smiles": "CC(C)Oc1oc(C(=O)NC2CCCCC2)c(-c2ccc(Cl)cc2)c1S(=O)(=O)c1ccc(Cl)cc1", "relative growth": "inactive: 0.997"}
{"smiles": "O=C(CN1CCOCC1)N[C@H]1CC[C@H](CCn2cc(C3CC3)nn2)O[C@H]1CO", "relative growth": "inactive: 0.988"}
{"smiles": "O=C(C[C@@H]1C[C@@H]2c3cc(NC(=O)Nc4ccc(C(F)(F)F)cc4)ccc3O[C@@H]2[C@H](CO)O1)NCc1ccc(Cl)cc1", "relative growth": "inactive: 0.989"}
{"smiles": "Cc1ccc(S(=O)(=O)Nc2ccc3c(c2)C(=O)N([C@H](C)CO)C[C@@H](C)[C@@H](CN(C)C(=O)CCC(F)(F)F)OCCCC[C@@H](C)O3)cc1", "relative growth": "inactive: 0.987"}
{"smiles": "Cc1ccc(S(=O)(=O)Nc2ccc3c(c2)C(=O)N([C@H](C)CO)C[C@H](C)[C@@H](CN(C)Cc2ccncc2)OCCCC[C@@H](C)O3)cc1", "relative growth": "inactive: 0.997"}
{"smiles": "CC(C)(C)c1ccc2oc(CN)nc2c1", "relative growth": "inactive: 0.988"}
{"smiles": "C[C@H]1CN([C@@H](C)CO)C(=O)c2cc(NC(=O)Nc3cccc4ccccc34)ccc2O[C@H]1CN(C)Cc1ccc(Cl)c(Cl)c1", "relative growth": "inactive: 1.02"}
{"smiles": "COc1ccc(S(=O)(=O)N(C)C[C@@H]2OCCCC[C@@H](C)Oc3ccc(NC(=O)Nc4ccc(F)cc4)cc3C(=O)N([C@H](C)CO)C[C@@H]2C)cc1", "relative growth": "inactive: 1.04"}
{"smiles": "Cc1cc(-c2ccc(NN=C3C=Cc4c(S(=O)(=O)O)cc(S(=O)(=O)O)c(N)c4C3=O)c(C)c2)ccc1NN=C1C=Cc2c(S(=O)(=O)O)cc(S(=O)(=O)O)c(N)c2C1=O", "relative growth": "inactive: 1.44"}
{"smiles": "C[C@@H]1CN([C@@H](C)CO)C(=O)c2cccc(NC(=O)Nc3ccccc3)c2O[C@H]1CN(C)S(C)(=O)=O", "relative growth": "inactive: 0.924"}
{"smiles": "C[C@@H]1CN([C@H](C)CO)S(=O)(=O)c2ccc(C#CC3(O)CCCC3)cc2O[C@@H]1CN(C)C(=O)Nc1cccc(F)c1", "relative growth": "inactive: 0.957"}
{"smiles": "C[C@H](CO)N1C[C@H](C)[C@H](CN(C)C(=O)Nc2ccc(C(F)(F)F)cc2)Oc2ccc(NC(=O)Cn3cnnn3)cc2C1=O", "relative growth": "inactive: 0.992"}
{"smiles": "C[C@H]1CN([C@@H](C)CO)C(=O)c2cc(NC(=O)NC3CCCCC3)ccc2O[C@H]1CN(C)Cc1ccc(-c2ccccc2)cc1", "relative growth": "inactive: 0.938"}
{"smiles": "COc1ccccc1S(=O)(=O)N(C)C[C@H]1OCc2cnnn2CCCC(=O)N([C@@H](C)CO)C[C@H]1C", "relative growth": "inactive: 0.98"}
{"smiles": "COCC(=O)N(C)C[C@@H]1Oc2cc(C#C[C@H](C)O)ccc2S(=O)(=O)N([C@H](C)CO)C[C@@H]1C", "relative growth": "inactive: 1"}
{"smiles": "O=C(C[C@@H]1CC[C@@H]2[C@H](COC[C@@H](O)CN2C(=O)Nc2ccc(Cl)c(Cl)c2)O1)NCc1ccc(Cl)c(Cl)c1", "relative growth": "inactive: 0.961"}
{"smiles": "CCOC(=O)c1cc2c(c(-c3cccc(C#CCN(C)C)c3)n1)[C@@H](CCO[Si](C)(C)C(C)(C)C)N([S@](=O)C(C)(C)C)C2", "relative growth": "inactive: 1.03"}
{"smiles": "NC/C(=C/F)CCc1ccc(F)cc1", "relative growth": "inactive: 0.983"}
{"smiles": "C[C@@H]1CCCCO[C@@H](CN(C)C(=O)C2CCCCC2)[C@H](C)CN([C@@H](C)CO)C(=O)c2cc(NC(=O)NC3CCCCC3)ccc2O1", "relative growth": "inactive: 1"}
{"smiles": "COc1ccc(S(=O)(=O)Nc2ccc3c(c2)C(=O)N([C@H](C)CO)C[C@H](C)[C@H](CN(C)Cc2ccccc2)OCCCC[C@@H](C)O3)cc1", "relative growth": "inactive: 1.01"}
{"smiles": "C[C@@H]1CN([C@H](C)CO)C(=O)c2cccc(NC(=O)c3cnccn3)c2O[C@H]1CN(C)Cc1ccccc1", "relative growth": "inactive: 1.02"}
{"smiles": "O=C(N[C@H](c1ccc(F)cc1)c1ccc2ccccc2n1)C1CCN(CCOc2ccc(Cl)cc2Cl)CC1", "relative growth": "inactive: 0.982"}
{"smiles": "C[C@@H]1CN([C@H](C)CO)C(=O)c2cc(NS(=O)(=O)c3ccc(F)cc3)ccc2O[C@@H]1CN(C)S(=O)(=O)c1cn(C)cn1", "relative growth": "inactive: 1.03"}
{"smiles": "OC[C@H]1O[C@@H](Oc2ccc(O)cc2)[C@H](O)[C@@H](O)[C@@H]1O", "relative growth": "inactive: 1.01"}
{"smiles": "C[C@H](CO)N1C[C@H](C)[C@@H](CN(C)S(C)(=O)=O)Oc2ccc(NC(=O)Nc3ccc(C(F)(F)F)cc3)cc2CC1=O", "relative growth": "inactive: 0.977"}
{"smiles": "COCC(=O)N1CCN2C[C@H](C(=O)O)CN(Cc3ccoc3)C[C@@H]2C1", "relative growth": "inactive: 1.02"}
{"smiles": "Cc1ccc(S(=O)(=O)Nc2cccc3c2O[C@@H](CN(C)Cc2ccc(Cl)c(Cl)c2)[C@@H](C)CN([C@H](C)CO)C3=O)cc1", "relative growth": "inactive: 1.03"}
{"smiles": "C[C@H](CO)N1C[C@H](C)[C@@H](CN(C)Cc2ccc3c(c2)OCCN3C)OCc2cn(nn2)CCCC1=O", "relative growth": "inactive: 0.973"}
{"smiles": "C[C@H]1CN([C@@H](C)CO)C(=O)Cc2cc(NS(=O)(=O)c3ccccc3)ccc2O[C@@H]1CN(C)Cc1ccc(-c2ccccc2)cc1", "relative growth": "inactive: 0.993"}
{"smiles": "C[C@@H]1CN([C@@H](C)CO)C(=O)c2cc(NS(=O)(=O)c3ccc(F)cc3)ccc2O[C@@H]1CN(C)S(C)(=O)=O", "relative growth": "inactive: 1.01"}
{"smiles": "C[C@@H]1CN([C@@H](C)CO)C(=O)CCCn2nncc2CO[C@@H]1CN(C)C(=O)Nc1ccc2c(c1)OCO2", "relative growth": "inactive: 0.974"}
{"smiles": "C[C@@H]1CN([C@@H](C)CO)C(=O)c2cc(NC(=O)C3CCCCC3)ccc2O[C@@H](C)CCCCO[C@@H]1CN(C)C(=O)Nc1ccc(C(F)(F)F)cc1", "relative growth": "inactive: 0.992"}
{"smiles": "Cc1ccc(S(=O)(=O)N(C)C[C@@H]2Oc3ccc(NC(=O)C4CC4)cc3C(=O)N([C@H](C)CO)C[C@@H]2C)cc1", "relative growth": "inactive: 1.04"}
{"smiles": "COc1ccc(S(=O)(=O)N(C)C[C@H]2OCCCC[C@H](C)Oc3ccc(NC(=O)Nc4c(C)noc4C)cc3C(=O)N([C@@H](C)CO)C[C@H]2C)cc1", "relative growth": "inactive: 0.996"}
{"smiles": "Cc1noc(C)c1NC(=O)N(C)C[C@H]1Oc2c(NC(=O)Nc3cccc4ccccc34)cccc2C(=O)N([C@H](C)CO)C[C@@H]1C", "relative growth": "inactive: 0.99"}
{"smiles": "CCc1c(C(=O)OC)nnn1-c1nonc1N", "relative growth": "inactive: 0.943"}
{"smiles": "CC(C)NC(=O)N[C@H]1C=C[C@@H](CC(=O)NCCN2CCCC2)O[C@@H]1CO", "relative growth": "inactive: 1.03"}
{"smiles": "C[C@H]1CN([C@@H](C)CO)C(=O)c2cccc(NC(=O)C3CCCCC3)c2O[C@@H]1CN(C)S(=O)(=O)c1cn(C)cn1", "relative growth": "inactive: 1.01"}
{"smiles": "C[C@@H]1CN([C@@H](C)CO)C(=O)c2cc(C#CC3(O)CCCC3)cnc2O[C@H]1CN(C)S(=O)(=O)c1ccccc1", "relative growth": "inactive: 1.01"}
{"smiles": "C[C@@H]1CN([C@H](C)CO)S(=O)(=O)c2ccc(C#CC3CC3)cc2O[C@@H]1CN(C)C(=O)C1CCCCC1", "relative growth": "inactive: 0.997"}
